Source: the supplement of paper PMC11417369
± gives the standard deviation of the averaged measurements. The list shows a part of the results.

What follows are sequences tested on PfAP2-I AP2 domain 3 (GST-tagged) (assay: gcPBM binding intensity (ln(normalized median fluorescence intensity)); higher = stronger DNA binding).
Outline: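 Alexa488 anti-GST antibody, scanned at 488 nm, detected GST-tagged P. falciparum DNA-binding domains that had been expressed in E. coli and incubated for 1 h on an Agilent 4 × 180k array. The array carried primer-extended double-stranded 36-bp intergenic genomic probes and negative controls. Binding intensity is the highest Masliner-normalised natural-log median intensity across replicate spots of either orientation of each probe.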

Sequence | gcPBM binding intensity (ln)
CTGTATTCATAATTCACACAAATGGTTTATATGAAT [CACACA_site4315] | 7.83 ± 0.47
TATATATATATATACACACACACACCCATATATATA [CACACA_site2538] | 9.3 ± 0.49
CATATTTGCACTTTCACACATAAATATATAACTATA [CACACA_site6016] | 11 ± 0.89
CATACATACAGATATACACACATATATAATAATATA [CACACA_site5477] | 7.7 ± 0.38
TTTTTATTTTTGTAGTGTACTTTATTTTTTTTGTTT [XGTACX_site8887] | 8.06 ± 0.4
TTTAAACAAGGATCCACACACCCCAAAAAAAAAAGA [CACACA_site680] | 8.54 ± 0.057
GTCTATTCAAAAAAGTGTACGGACATATAAACATAC [XGTACX_site6516] | 8.46 ± 0.19
TTAGCTATGATATATACACACCAACGAACGAAGAAA [CACACA_site6657] | 8.03 ± 0.61
TATGGTGTAATTTAGTGTATTATATTATTTTGGTTG [GTGCAC_negctrl_site445] | 7.99 ± 0.35
TGCAGTCTGGAGAAAAGTACATAGTATCTGGTATCT [XGTACX_site2545] | 7.83 ± 0.68
TTTTTTTTTTTTTTTGCACACAGGGTGTAGGACAAG [CACACA_site2842] | 9.54 ± 0.47
ATATATATATTCCACACACACACAAAAAAAAAAAAA [CACACA_site3648] | 9.02 ± 0.28
CATTTGATAAGATACACACACAAGGAAAAAAATAAA [CACACA_site350] | 7.91 ± 0.63
TATAATAATATTAACACACGTACAAAAGCAAACAAC [CACACA_site3494] | 8.94 ± 0.35
TTATAATATCTATATATCTTTTACATTTATAAGTTT [CACACA_negctrl_site1473] | 7.59 ± 0.47
AAAAAAAAATAAATAAATATATATAATATTTATGTT [GTGCAC_negctrl_site520] | 7.34 ± 0.39
AAAAAGAAAAAACTTACACACATATATACAGACATG [CACACA_site550] | 7.82 ± 0.59
TTATAATCCATAATTGCACACAATATATTCATATTT [CACACA_site3916] | 8.79 ± 0.3
AATATACAATAAAGGTGTACACATATATGATGCAAG [XGTACX_site7607] | 8.38 ± 0.45

Sequence | gcPBM binding intensity (ln)
ATAAAATAAGATCTTTTTTTTTTTTTTTTCTTTTCT [XGTACX_negctrl_site73] | 7.26 ± 0.59
AACAAATAAATAAATAAAAAGCAAATATGTCTATAT [GTGCAC_negctrl_site414] | 7.78 ± 0.82
TGGTTAATATGTGAAAGTACATATTATATTAAAATG [XGTACX_site2636] | 7.78 ± 0.5
TACAGATAATATATTGCACACGTCAGAATAATATAG [CACACA_site5036] | 9.95 ± 0.34
TATAACTTTTTTATTACACACCTATGCAATATTATA [CACACA_site6570] | 8.82 ± 0.67
TATATTTATTTATACACATGCATATTTTAAGGGCTC [TGCATGCA_site885] | 7.86 ± 0.54
ATTTATTTATTTATTTGTACATATAAATATATCAAA [XGTACX_site7383] | 8.06 ± 0.82
AAAGATGTTATATATATGTATATATATATGTAATAT [TGCATGCA_negctrl_site386] | 7.64 ± 0.41
CATATAATTATATATCGTACATATTAATATAATTAC [XGTACX_site401] | 7.71 ± 0.42
AGTATACAGATATATACACACATATATTTATTTATA [CACACA_site6279] | 7.56 ± 0.47
AGATATAGGAAAATAATATATATATATTTTTTTTTT [CACACA_negctrl_site461] | 7.27 ± 0.44
ATATATATATATATATGTACTTATAAGGTATATTTA [XGTACX_site3327] | 9.35 ± 0.52
CCAACATTTTTTAGAAGTACATTTTTATATTTATTA [XGTACX_site5179] | 7.59 ± 0.24
AAATAAAAACATAACAGTACAGTTAACATTTTTATA [XGTACX_site3479] | 7.41 ± 0.54
TATATATATATATATGTACACACATATATACCTTTC [CACACA_site8854] | 9.57 ± 0.33
TGTAATAATCTTACATGTACATACATATATTATATA [XGTACX_site4012] | 7.97 ± 0.23
GATGGAAGGTGAAAGCGTACTTATTATAGTAATATA [XGTACX_site303] | 7.88 ± 0.87
AGGTACTTTTTTAAAACACACATATAATATATACAC [CACACA_site1065] | 8.15 ± 0.49
TACATTCATGTGTATTGTACAAACTATTTTATAATA [XGTACX_site7744] | 7.61 ± 0.49

Sequence | gcPBM binding intensity (ln)
TACATATTTTTTATGTGTACATATTTTTTATGTGTA [XGTACX_site443] | 7.775 ± 0.049
ACAATCCTAACGACATGTACAAATATATATATTTTT [XGTACX_site7335] | 7.85 ± 0.59
TATATAATATATATAGTGCATAAGTTCAAAAGAATA [GTGCAC_site9805] | 9.95 ± 0.16
GCATATTTTATAATTTTACACACCATATAAAATAAT [CACACA_site8904] | 8.3 ± 0.51
AAACAAAGAAAGAACACACATACACAATATACCTAC [CACACA_site2835] | 8.03 ± 0.64
ATATATGTGTATGTATGTACTCATTTTTGTATATAT [XGTACX_site490] | 7.83 ± 0.38
TTATATATTTATATTTGTACGTATAAATTTTTTTTT [XGTACX_site2833] | 7.71 ± 0.15
TATTTTGAAAAAGTTGCACACAAAATTTAAAAAAAA [CACACA_site8470] | 8.34 ± 0.26
CATTTAAATTATAAGTGTACACGATCATATTTCATC [XGTACX_site349] | 8.05 ± 0.69
ATAATGATATATTATAAACACACAAAGATGAATATA [CACACA_site8914] | 7.72 ± 0.52
GTTATAGAAGCATTCACACACACACCCACATACACA [CACACA_site1465] | 8.535 ± 0.049
TTACATAATATATGTACACACGCAAATACTTAGAAT [CACACA_site320] | 7.91 ± 0.55
AAACGATTACTGTGTACACACATAGTTATAAACATA [CACACA_site5195] | 8.04 ± 0.42
GAATGTTAACGTTGCACACAAAAAAAAAGTATACAT [CACACA_site2415] | 8.4 ± 0.43
AGGATATGCAGACACACACACATATATATATATATA [CACACA_site2201] | 9.46 ± 0.4
TTTTTTAATAATAGGAAAATGAATATTATATCGAAT [TGCATGCA_negctrl_site543] | 7.7 ± 0.54
TTTTTTTTTTTTTCAAGTACATAACTTACCCCTTTT [XGTACX_site6207] | 8.12 ± 0.57
TTATATGCATAAAAACGTACAAAAATGTATTCATGT [XGTACX_site2215] | 8.06 ± 0.52
